Assay results from the supplement of paper PMC12217912.
Some of the results follow. The full chains were built here from the parent and the listed change. Inactive controls read about 0.05.

B1: TEV protease; numbered along this chain (parent)
chain: MGESLFKGPRDYNPISSSICHLTNESDGHTTSLYGIGFGPFIITNKHLFRRNNGTLVVQSLHGVFKVKDTTTLQQHLVDGRDMIIIRMPKDFPPFPQKLKFREPQREERICLVTTNFQTKSMSSMVSDTSCTFPSGDGIFWKHWIQTKDGQCGSPLVSTRDGFIVGIHSASNFTNTNNYFTSVPKNFMELLTNQEAQQWVSGWRLNADSVLWGGHKVFMVKPEEPFQPVKEATQL

Variants of: B1
Assay: raw area under fraction-flipped curve 0-4 h after induction (AUC4h, not background-subtracted), DNA-recorder readout of cleavage of the substrate (dimensionless); higher = more cleavage of the substrate by the protease variant
Settings: temperature: 34 °C; time window: 0-4 h after rhamnose induction
Method: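 In vivo DNA recorder in E. coli TOP10(DE3) ΔrhaA at 34 °C. Each TEVp single-site mutant (parent TEVp 0) is paired with a single-site variant of the 7-mer TEVs (canonical ENLYFQ|S). The substrate sits between flexible linkers in a Bxb1-sfGFP-TEVs-SsrA fusion, so cleavage stabilises Bxb1 and speeds flipping of a recombination array, read by NGS. The value is the raw area under the fraction-flipped curve over 0-4 h after rhamnose induction (AUC4h), with ≥20 reads per time point. It is not background-subtracted; inactive controls average about 0.047.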
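Note: Bxb1 expression induced with 0.2% (w/v) L-rhamnose at OD600 near 0.5, cultures sampled hourly, flipped fraction per protease–substrate barcode pair counted by paired-end Illumina sequencing.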

Variant	area with substrate ENLAFQS	area with substrate ENLDFQS	area with substrate ENLEFQS	area with substrate ENLFFQS	area with substrate ENLGFQS	area with substrate ENLHFQS	area with substrate ENLIFQS	area with substrate ENLKFQS	area with substrate ENLLFQS	area with substrate ENLMFQS	area with substrate ENLNFQS	area with substrate ENLPFQS	area with substrate ENLQFQS	area with substrate ENLRFQS	area with substrate ENLSFQS	area with substrate ENLTFQS	area with substrate ENLVFQS	area with substrate ENLCFQS	area with substrate ENLWFQS
N45Y	0.0576	0.0613	0.0702	0.0689	0.072	0.069	0.0528	0.0701	0.0645	0.0652	0.0635	0.0576	0.0509	0.0602	0.0577	0.0847	0.0703		
N45L	0.051	0.0669	0.0561	0.0574		0.0553	0.0587	0.0593	0.062	0.0615	0.0617	0.0572	0.0773		0.045		0.0617	0.0592	0.0619
L48T	0.0517	0.0652	0.0647	0.0789	0.0733	0.0555	0.0717	0.0593	0.0557		0.0628	0.0559	0.0726	0.0703	0.0506	0.0848	0.0587	0.0725	
L48D	0.0617	0.0655	0.0689	0.0685	0.056	0.0629	0.0674	0.0725	0.0412	0.0581	0.0649	0.0653	0.0623	0.0531	0.0573			0.063	0.0616
L48P	0.0676	0.0546	0.063		0.0472	0.0299		0.0692		0.139	0.0509	0.0532		0.0566	0.0537			0.0643	0.0609
T44R	0.0559	0.0534		0.0556	0.0358	0.0472	0.0509	0.0456	0.05	0.0496	0.0509	0.0634	0.0617		0.0356		0.0545	0.0677	
I15F	0.0746	0.0657	0.0666	0.0716	0.0756	0.0594		0.0733	0.0738		0.0654	0.0535	0.064	0.071	0.0624			0.0687	0.062
I15N	0.0563	0.0594	0.061	0.0725		0.0593		0.0505		0.0576	0.0516	0.0715	0.0573	0.0462	0.0549		0.0814	0.0748	0.0476
N24A	0.0556	0.0669	0.0552	0.0739	0.0613	0.0583	0.0814	0.074	0.0653		0.0614	0.0704	0.0639	0.0728	0.0534	0.0622	0.0498	0.0632	0.0611
N24G	0.0692	0.0684	0.0653	0.0706		0.0537	0.0734	0.0786	0.0666	0.065	0.0707	0.0573	0.0522		0.0681	0.0578	0.0622	0.055	0.0659
N24S	0.047	0.0629		0.0675		0.0647	0.0648	0.0631			0.0721	0.0599				0.0807	0.0704		0.0469
N24V	0.0703	0.0695	0.062	0.0826		0.077	0.0789	0.0696	0.0744		0.0543	0.0529		0.0638		0.0673	0.0768		0.0598
N24P	0.0555	0.0623	0.0627	0.0636	0.0601	0.0596	0.061	0.0548	0.043	0.0498	0.0558	0.0562	0.0649	0.049	0.066			0.0613	0.0569
H21I	0.0423	0.0615	0.0703	0.0925			0.0778	0.0767	0.0668	0.0668	0.0631	0.0603		0.0591	0.0689		0.0473	0.0688	0.0661
H21F	0.0657	0.059	0.0597	0.0731		0.11	0.0647	0.0791	0.0582	0.0384	0.0651	0.0543		0.0514	0.0598	0.0743		0.0474	0.0598
H21E	0.0613	0.0664	0.0641	0.0801		0.0658	0.0766	0.0601	0.0674	0.0729	0.0588	0.0608	0.0644	0.0699	0.0604		0.0627	0.0661	0.0553
Y12Q	0.0606	0.0528	0.0582	0.105	0.0388	0.102	0.0607	0.0672	0.0815	0.0848	0.0635	0.0517		0.0703	0.0517		0.0399		0.0734
Y12A	0.0544	0.0732	0.0645	0.0833	0.0826	0.0726	0.0729	0.0674		0.0685	0.0647	0.0588	0.0832	0.0871	0.0696		0.105	0.0807	0.0692
Y12I	0.067	0.0644	0.0623	0.0812	0.0667	0.0648	0.0775	0.0687	0.0729	0.0786	0.0626	0.0432	0.0632	0.0554		0.0693		0.0897	0.04
T31Q	0.0579	0.0637		0.0725		0.0809					0.0679			0.0635	0.0637				
P40M	0.0638	0.0549	0.0636	0.0861				0.0786	0.0731	0.0823	0.0711	0.0685	0.064	0.0721	0.0705		0.0481	0.0731	
P40W	0.0604	0.0431	0.0526	0.0991		0.0673		0.0623	0.0595	0.0734	0.0573		0.074	0.0719	0.0671		0.0971		0.0664
G37Q	0.0468	0.055		0.0649	0.0608	0.0789		0.0593			0.0795		0.0572	0.0473			0.0525		0.0585
